According to a collection of fitness landscapes (doi:10.1126/science.1257360):
Some of the results follow.

B1: PhoQ; a variant is named by its letters at X, in order, P23837 (parent)
chain: MKKLLRLFFPLSLRVRFLLATAAVVLVLSLAYGMVALIGYSVSFDKTTFRLLRGESNLFYTLAKWENNKLHVELPENIDKQSPTMTLIYDENGQLLWAQRDVPWLMKMIQPDWLKSNGFHEIEADVNDTSLLLSGDHSIQQQLQEVREDDDDAEMTHSVAVNVYPATSRMPKLTIVVVDTIPVELKSSYMVWSWFIYVLSANLLLVIPLLWVAAWWSLRPIEALAKEVRELEEHNRELLNPATTRELTSLVRNLNRLLKSERERYDKYRTTLTDLTHSLKTPLXXLQXXLRSLRSEKMSVSDAEPVMLEQISRISQQIGYYLHRASMRGGTLLSRELHPVAPLLDNLTSALNKVYQRKGVNISLDISPEISFVGEQNDFVEVMGNVLDNACKYCLEFVEISARQTDEHLYIVVEDDGPGIPLSKREVIFDRGQRVDTLRPGQGVGLAVAREITEQYEGKIVAGESMLGGARMEVIFGRQHSAPKDE

Variants of: B1
Test: enrichment ratio after two sorts for PhoP signalling (ratio (wild type AVST 3.29)); higher = more functional
Conditions: with PhoP (E. coli)

| Variant | enrichment ratio |
| --- | --- |
| ENYY | ≤ 0.25 |
| IRLN | ≤ 0.25 |
| ASKA | ≤ 0.25 |
| HYQE | ≤ 0.25 |
| YYNE | ≤ 0.25 |
| SDPG | ≤ 0.25 |
| QPLN | ≤ 0.25 |
| FCFL | ≤ 0.25 |
| VREE | ≤ 0.25 |
| NLKG | ≤ 0.25 |
| SCQF | 7.66 |
| LNKY | ≤ 0.25 |
| SKIE | ≤ 0.25 |
| AKNF | ≤ 0.25 |
| RLSN | ≤ 0.25 |
| DHWL | ≤ 0.25 |
| SESW | ≤ 0.25 |
| FAMA | ≤ 0.25 |
| TVYF | ≤ 0.25 |
| ERHP | ≤ 0.25 |
| LNWS | ≤ 0.25 |
| LQKP | ≤ 0.25 |
| TMWC | ≤ 0.25 |
| WELY | ≤ 0.25 |

| Variant | enrichment ratio |
| --- | --- |
| EFSV | ≤ 0.25 |
| FLYK | ≤ 0.25 |
| TATL | 16.3 |
| VISQ | ≤ 0.25 |
| KTRP | ≤ 0.25 |
| ICNQ | ≤ 0.25 |
| MIRA | ≤ 0.25 |
| RCSI | ≤ 0.25 |
| DACN | ≤ 0.25 |
| KILF | ≤ 0.25 |
| EFCF | ≤ 0.25 |
| IIYH | ≤ 0.25 |
| VSLE | 2.79 |
| EVPT | ≤ 0.25 |
| VHDS | ≤ 0.25 |
| HQHK | ≤ 0.25 |
| ICRQ | ≤ 0.25 |
| GKWL | ≤ 0.25 |
| NPSE | ≤ 0.25 |
| FLPY | ≤ 0.25 |
| QYGM | ≤ 0.25 |
| TGKI | ≤ 0.25 |
| HAMQ | ≤ 0.25 |
| GLIH | ≤ 0.25 |

| Variant | enrichment ratio |
| --- | --- |
| WGLL | 6.16 |
| MKFF | 1.09 |
| MGFM | 9.14 |
| RRQK | ≤ 0.25 |
| ENHL | ≤ 0.25 |
| NHNS | ≤ 0.25 |
| LAWF | ≤ 0.25 |
| MPAD | ≤ 0.25 |
| WTRG | ≤ 0.25 |
| VHKI | ≤ 0.25 |
| SFNH | ≤ 0.25 |
| WHSD | ≤ 0.25 |
| HVAW | ≤ 0.25 |
| VSPH | ≤ 0.25 |
| DWTS | ≤ 0.25 |
| AALK | 12 |
| IQIY | ≤ 0.25 |
| KRMV | ≤ 0.25 |
| DAIS | ≤ 0.25 |
| KCSG | ≤ 0.25 |
| ARTI | 0.912 |
| PPHI | ≤ 0.25 |
| TYVR | ≤ 0.25 |
| NLCC | ≤ 0.25 |

| Variant | enrichment ratio |
| --- | --- |
| TPPW | ≤ 0.25 |
| KHAI | ≤ 0.25 |
| YCCN | 0.253 |
| NFAC | ≤ 0.25 |
| FAIV | ≤ 0.25 |
| ATGT | ≤ 0.25 |
| TGMM | 16 |
| TWCE | ≤ 0.25 |
| HRCM | ≤ 0.25 |
| WNTG | ≤ 0.25 |
| GRRF | ≤ 0.25 |
| WPGT | ≤ 0.25 |
| VVHH | ≤ 0.25 |
| VGHH | ≤ 0.25 |
| VRSY | ≤ 0.25 |
| SNPH | ≤ 0.25 |
| HNFR | ≤ 0.25 |
| FGDE | ≤ 0.25 |
| SHHG | ≤ 0.25 |
| ALWE | ≤ 0.25 |
| KYIR | ≤ 0.25 |
| EPYP | ≤ 0.25 |
| KFMR | ≤ 0.25 |
| DFGF | ≤ 0.25 |

| Variant | enrichment ratio |
| --- | --- |
| KNPL | ≤ 0.25 |
| QVHM | ≤ 0.25 |
| RHAL | ≤ 0.25 |
| MEGN | 10.8 |
| ILGA | ≤ 0.25 |
| HKRD | ≤ 0.25 |
| AWLV | ≤ 0.25 |
| IQES | ≤ 0.25 |
| YRII | ≤ 0.25 |
| LAWT | ≤ 0.25 |
| ITMT | ≤ 0.25 |
| DTYA | ≤ 0.25 |
| MEAH | 28.9 |
| NHPI | ≤ 0.25 |
| QMPY | ≤ 0.25 |
| GQVR | ≤ 0.25 |
| PMKL | ≤ 0.25 |
| TAVI | ≤ 0.25 |
| ACNW | ≤ 0.25 |
| DMGH | ≤ 0.25 |
| CIST | ≤ 0.25 |
| ISWE | ≤ 0.25 |
| SGLM | 17.9 |
| SPDG | ≤ 0.25 |

| Variant | enrichment ratio |
| --- | --- |
| MHFR | 0.537 |
| SRNF | ≤ 0.25 |
| QVIR | ≤ 0.25 |
| SSFT | ≤ 0.25 |
| MDKT | ≤ 0.25 |
| SCLI | 6.18 |
| SLCC | 8.22 |
| MEER | ≤ 0.25 |
| TTRF | ≤ 0.25 |
| GYEW | ≤ 0.25 |
| MHLF | ≤ 0.25 |
| RRTL | ≤ 0.25 |
| FTEW | ≤ 0.25 |
| IDFH | ≤ 0.25 |
| MTKA | ≤ 0.25 |
| HEKA | ≤ 0.25 |
| LTVC | ≤ 0.25 |
| SPMV | ≤ 0.25 |
| SLTR | ≤ 0.25 |
| GEIC | 45.3 |
| HEND | ≤ 0.25 |
| AQSI | 18.6 |
| VLWT | ≤ 0.25 |
| STES | ≤ 0.25 |

| Variant | enrichment ratio |
| --- | --- |
| GILT | 3.61 |
| KLMR | ≤ 0.25 |
| GWWR | ≤ 0.25 |
| THVF | 0.475 |
| ENDP | ≤ 0.25 |
| DNIH | ≤ 0.25 |
| ADRK | ≤ 0.25 |
| LSEC | ≤ 0.25 |
| NPLP | ≤ 0.25 |
| FTQY | ≤ 0.25 |
| RVME | ≤ 0.25 |
| GNWN | ≤ 0.25 |
| HGLS | 2.46 |
| ICEN | ≤ 0.25 |
| WCWM | ≤ 0.25 |
| RKQV | ≤ 0.25 |
| SEIT | 8.27 |
| AKIR | ≤ 0.25 |
| DREG | ≤ 0.25 |
| MCSW | ≤ 0.25 |
| IWWL | ≤ 0.25 |
| AGQS | ≤ 0.25 |
| PGLS | ≤ 0.25 |
| AFYY | ≤ 0.25 |

| Variant | enrichment ratio |
| --- | --- |
| NDRW | ≤ 0.25 |
| WIFQ | ≤ 0.25 |
| VLDN | ≤ 0.25 |
| PELL | ≤ 0.25 |
| PVHK | ≤ 0.25 |
| TENM | 15.7 |
| DWLR | 0.787 |
| VTHW | ≤ 0.25 |
| VQDV | ≤ 0.25 |
| RCQA | ≤ 0.25 |
| AALG | 8.12 |
| QGLA | 2.96 |
| SGEL | ≤ 0.25 |
| IVDE | ≤ 0.25 |
| DFWL | ≤ 0.25 |
| DRLP | ≤ 0.25 |
| SCFC | ≤ 0.25 |
| WTPM | ≤ 0.25 |
| NHPQ | ≤ 0.25 |
| EVNC | ≤ 0.25 |
| NKRY | ≤ 0.25 |
| TATD | ≤ 0.25 |
| MPNY | ≤ 0.25 |
| RGQD | ≤ 0.25 |

| Variant | enrichment ratio |
| --- | --- |
| PLIV | ≤ 0.25 |
| DSQH | ≤ 0.25 |
| ETAK | ≤ 0.25 |
| YFPF | ≤ 0.25 |
| RCEI | ≤ 0.25 |
| WKFF | ≤ 0.25 |
| TLNS | 6.81 |
| HIRL | ≤ 0.25 |
| TGTC | 10.4 |
| PRDF | ≤ 0.25 |
| HEFT | ≤ 0.25 |
| HTWL | ≤ 0.25 |
| DERA | ≤ 0.25 |
| AEPI | ≤ 0.25 |
| MSIA | ≤ 0.25 |
| VQQQ | ≤ 0.25 |
| IRED | ≤ 0.25 |
| QKYV | ≤ 0.25 |
| HNTY | ≤ 0.25 |
| AKGF | ≤ 0.25 |
| AWRG | ≤ 0.25 |
| WSGD | ≤ 0.25 |
| RCAW | ≤ 0.25 |
| AKYM | ≤ 0.25 |

| Variant | enrichment ratio |
| --- | --- |
| GFIE | ≤ 0.25 |
| TKFH | ≤ 0.25 |
| AIIF | ≤ 0.25 |
| AIVE | 12.3 |
| HMAD | ≤ 0.25 |
| ECSV | ≤ 0.25 |
| NGPL | ≤ 0.25 |
| YYRH | ≤ 0.25 |
| TWLR | ≤ 0.25 |
| SPKP | ≤ 0.25 |
| NTMP | ≤ 0.25 |
| CVIN | ≤ 0.25 |
| INCK | ≤ 0.25 |
| HGDK | ≤ 0.25 |
| YDAC | ≤ 0.25 |
| GSTS | 0.817 |
| GLTS | ≤ 0.25 |
| QGHI | 10.9 |
| NHRQ | ≤ 0.25 |
| VCGA | ≤ 0.25 |
| VGIY | ≤ 0.25 |
| RFGV | ≤ 0.25 |
| VCRS | ≤ 0.25 |
| NGPT | ≤ 0.25 |

| Variant | enrichment ratio |
| --- | --- |
| EKTA | ≤ 0.25 |
| IHLL | ≤ 0.25 |
| NTPG | ≤ 0.25 |
| YSHG | ≤ 0.25 |
| EQGD | ≤ 0.25 |
| RAPQ | ≤ 0.25 |
| GSRN | ≤ 0.25 |
| YFNF | ≤ 0.25 |
| EKAI | ≤ 0.25 |
| FPNI | ≤ 0.25 |
| DEHI | ≤ 0.25 |
| PAGN | ≤ 0.25 |
| QQCR | ≤ 0.25 |
| VQYV | ≤ 0.25 |
| IACS | ≤ 0.25 |
| AVGH | 7.76 |
| FSWC | ≤ 0.25 |
| RTKA | ≤ 0.25 |
| ETSL | ≤ 0.25 |
| VHIL | ≤ 0.25 |
| IKIK | ≤ 0.25 |
| AGRL | ≤ 0.25 |
| LFKG | ≤ 0.25 |
| AMVQ | 13.1 |

| Variant | enrichment ratio |
| --- | --- |
| GLAI | 2.2 |
| RYPI | ≤ 0.25 |
| WGTQ | ≤ 0.25 |
| LGVQ | ≤ 0.25 |
| ENVK | ≤ 0.25 |
| NSMK | ≤ 0.25 |
| YHYA | ≤ 0.25 |
| QYCC | ≤ 0.25 |
| GRQT | ≤ 0.25 |
| TCRT | ≤ 0.25 |
| FMNA | ≤ 0.25 |
| WMCM | ≤ 0.25 |
| TYVN | ≤ 0.25 |
| PICP | ≤ 0.25 |
| IPPV | ≤ 0.25 |
| RMCL | ≤ 0.25 |
| EFRP | ≤ 0.25 |
| MMGR | ≤ 0.25 |
| DQQL | ≤ 0.25 |
| TFML | 5.46 |
| GNQG | ≤ 0.25 |
| DNLT | ≤ 0.25 |
| GITN | ≤ 0.25 |
| YRRS | ≤ 0.25 |

| Variant | enrichment ratio |
| --- | --- |
| RLYF | ≤ 0.25 |
| FIKA | ≤ 0.25 |
| FHCY | ≤ 0.25 |
| FVPT | ≤ 0.25 |
| WDFG | ≤ 0.25 |
| SMMA | 4.7 |
| YRRL | ≤ 0.25 |
| VGAW | ≤ 0.25 |
| WQKD | ≤ 0.25 |
| RLST | ≤ 0.25 |
| GHFG | ≤ 0.25 |
| RYEV | ≤ 0.25 |
| DMEA | ≤ 0.25 |
| PEQN | ≤ 0.25 |
| VGWG | ≤ 0.25 |
| IFCC | ≤ 0.25 |
| QGMG | ≤ 0.25 |
| LCYD | ≤ 0.25 |
